# Laboratory results reported in the supplement of paper PMC10037445.
# ± gives the standard deviation of the averaged measurements. In all, about 2,900 compounds were measured (“NF-kB SEAP reporter activity, fold change vs agonist alone”: median about 0.99, highest 2% from about 2.6 on). The list shows a part of the results.
# Legend:
# RAW-Dual [1] = assay: NF-kB SEAP reporter activity, fold change vs agonist alone; higher = enhanced NF-kB activity; details: library stock concentration (final ~1000-fold dilution): 10 mM
# Summary of the method: (§1)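 RAW-Dual macrophages (50,000 cells/well in DMEM, 384-well plates) received 50 nL of library stock by pin tool, then a PRR agonist 1 h later, and were kept at 37 °C, 5% CO2. After 20 hours, supernatant was read for IRF by QuantiLuc luminescence and for NF-κB by QuantiBlue absorbance at 620 nm. Reporter activity is fold change over agonist-alone wells. Cytotoxic wells had IncuCyte confluency below 70% of agonist controls in both mask sets.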
# RAW-Dual [2] = assay: NF-kB SEAP reporter activity, fold change vs agonist alone; cytotoxicity flag (confluency mask): not cytotoxic; higher = enhanced NF-kB activity
# Summary of the method: as §1
# RAW-Dual [3] = assay: NF-kB SEAP reporter activity, fold change vs agonist alone; cytotoxicity flag (confluency mask): cytotoxic (confluency <70% of control); higher = enhanced NF-kB activity
# Summary of the method: as §1
# [4] = cytotoxicity flag (confluency mask): not cytotoxic, agonist: Imiquimod (TLR7) […]
# [5] = cytotoxicity flag (confluency mask): not cytotoxic, agonist: MPLA (TLR4) […]
# [6] = agonist: ODN 1826 (TLR9) 0.5 ug/mL
# [7] = agonist: Pam2CSK4 (TLR2/6) 0.1 ug/mL
# [8] = agonist: Pam3CSK4 (TLR2/1) 0.1 ug/mL
# [9] = cytotoxicity flag (confluency mask): cytotoxic (confluency <70% of control), agonist: Imiquimod (TLR7) […]
# [10] = cytotoxicity flag (confluency mask): cytotoxic (confluency <70% of control), agonist: MPLA (TLR4) […]
smiles,measurement,setting,value
CS(=O)(=O)c1ccc(-c2nnc(/C=C/c3nnc(-c4ccc(C#N)cc4)o3)n2-c2ccccc2Cl)nc1,NF-kB SEAP reporter activity,RAW-Dual [1]; [4],1.01
same,NF-kB SEAP reporter activity,RAW-Dual [1]; [5],0.792
CN(C)CCC(c1ccc(Cl)cc1)c1ccccn1.O=C(O)/C=C\C(=O)O (centres undefined),NF-kB SEAP reporter activity,RAW-Dual [1]; [4],1.09
same,NF-kB SEAP reporter activity,RAW-Dual [1]; [5],0.839
CN(C)CCC(c1ccc(Cl)cc1)c1ccccn1.O=C(O)/C=C\C(=O)O (centres undefined) (library stock concentration (final ~1000-fold dilution): 10 mM),NF-kB SEAP reporter activity,RAW-Dual [2]; agonist: LPS (TLR4) 0.1 ug/mL,1.16
same,NF-kB SEAP reporter activity,RAW-Dual [2]; [6],0.822
same,NF-kB SEAP reporter activity,RAW-Dual [2]; [7],1.03
same,NF-kB SEAP reporter activity,RAW-Dual [2]; [8],1.14
Cc1c(CN2CCC(Nc3ncnc4sc(CC(F)(F)F)cc34)CC2)ccc2[nH]c(C#N)cc12 (library stock concentration (final ~1000-fold dilution): 10 mM),NF-kB SEAP reporter activity,RAW-Dual [2]; agonist: LPS (TLR4) 0.1 ug/mL,1.32
same,NF-kB SEAP reporter activity,RAW-Dual [2]; [6],0.176
same,NF-kB SEAP reporter activity,RAW-Dual [2]; [7],0.631
same,NF-kB SEAP reporter activity,RAW-Dual [2]; [8],0.575
Cc1c(CN2CCC(Nc3ncnc4sc(CC(F)(F)F)cc34)CC2)ccc2[nH]c(C#N)cc12,NF-kB SEAP reporter activity,RAW-Dual [1]; [4],0.878
same,NF-kB SEAP reporter activity,RAW-Dual [1]; [5],0.915
O=[N+]([O-])c1ccc(Sc2cccc[n+]2[O-])c2nonc12 (library stock concentration (final ~1000-fold dilution): 10 mM),NF-kB SEAP reporter activity,RAW-Dual [3]; agonist: LPS (TLR4) 0.1 ug/mL,0.28
same,NF-kB SEAP reporter activity,RAW-Dual [3]; [6],0.209
same,NF-kB SEAP reporter activity,RAW-Dual [3]; [7],0.113
same,NF-kB SEAP reporter activity,RAW-Dual [3]; [8],0.15
O=[N+]([O-])c1ccc(Sc2cccc[n+]2[O-])c2nonc12,NF-kB SEAP reporter activity,RAW-Dual [1]; [9],0.159
same,NF-kB SEAP reporter activity,RAW-Dual [1]; [10],0.375
O=C1NC(=O)C(c2cn3c4c(cccc24)CCC3)C1c1c[nH]c2ccccc12 (centres undefined),NF-kB SEAP reporter activity,RAW-Dual [1]; [4],2.44
same,NF-kB SEAP reporter activity,RAW-Dual [1]; [5],1.84
O=C1NC(=O)C(c2cn3c4c(cccc24)CCC3)C1c1c[nH]c2ccccc12 (centres undefined) (library stock concentration (final ~1000-fold dilution): 10 mM),NF-kB SEAP reporter activity,RAW-Dual [2]; agonist: LPS (TLR4) 0.1 ug/mL,3.41
same,NF-kB SEAP reporter activity,RAW-Dual [2]; [6],2.7
same,NF-kB SEAP reporter activity,RAW-Dual [2]; [7],1.49
same,NF-kB SEAP reporter activity,RAW-Dual [2]; [8],1.4
NC(=O)c1ccc(I)c([N+](=O)[O-])c1 (library stock concentration (final ~1000-fold dilution): 10 mM),NF-kB SEAP reporter activity,RAW-Dual [2]; agonist: LPS (TLR4) 0.1 ug/mL,0.752
same,NF-kB SEAP reporter activity,RAW-Dual [2]; [6],0.629
same,NF-kB SEAP reporter activity,RAW-Dual [2]; [7],0.641
same,NF-kB SEAP reporter activity,RAW-Dual [2]; [8],0.735
NC(=O)c1ccc(I)c([N+](=O)[O-])c1,NF-kB SEAP reporter activity,RAW-Dual [1]; [4],0.765
same,NF-kB SEAP reporter activity,RAW-Dual [1]; [5],0.977
CC(N)C12CC3CC(CC(C3)C1)C2.Cl (centres undefined),NF-kB SEAP reporter activity,RAW-Dual [1]; [5],1.06
CC(N)C12CC3CC(CC(C3)C1)C2.Cl (centres undefined) (library stock concentration (final ~1000-fold dilution): 10 mM),NF-kB SEAP reporter activity,RAW-Dual [2]; agonist: LPS (TLR4) 0.1 ug/mL,1.15
same,NF-kB SEAP reporter activity,RAW-Dual [2]; [6],0.619
same,NF-kB SEAP reporter activity,RAW-Dual [2]; [7],1.24
same,NF-kB SEAP reporter activity,RAW-Dual [2]; [8],0.847
O=C(NCc1ccccn1)Nc1nnc(-c2ccco2)o1,NF-kB SEAP reporter activity,RAW-Dual [1]; [4],0.891
same,NF-kB SEAP reporter activity,RAW-Dual [1]; [5],0.925
O=C(NCc1ccccn1)Nc1nnc(-c2ccco2)o1 (library stock concentration (final ~1000-fold dilution): 10 mM),NF-kB SEAP reporter activity,RAW-Dual [2]; agonist: LPS (TLR4) 0.1 ug/mL,1.08
same,NF-kB SEAP reporter activity,RAW-Dual [2]; [6],1.13
same,NF-kB SEAP reporter activity,RAW-Dual [2]; [7],0.952
same,NF-kB SEAP reporter activity,RAW-Dual [2]; [8],1.05
CCCNC(=O)Nc1ccc(Oc2ncnc3cc(OC)c(OC)cc23)cc1Cl (library stock concentration (final ~1000-fold dilution): 10 mM),NF-kB SEAP reporter activity,RAW-Dual [2]; agonist: LPS (TLR4) 0.1 ug/mL,0.912
same,NF-kB SEAP reporter activity,RAW-Dual [2]; [6],1.12
same,NF-kB SEAP reporter activity,RAW-Dual [2]; [7],1.07
same,NF-kB SEAP reporter activity,RAW-Dual [2]; [8],1.12
CCCNC(=O)Nc1ccc(Oc2ncnc3cc(OC)c(OC)cc23)cc1Cl,NF-kB SEAP reporter activity,RAW-Dual [1]; [4],0.808
same,NF-kB SEAP reporter activity,RAW-Dual [1]; [5],1.12
COC1=CC(=O)c2ccccc2C1=O,NF-kB SEAP reporter activity,RAW-Dual [1]; [9],0.54
same,NF-kB SEAP reporter activity,RAW-Dual [1]; [10],0.297
COC1=CC(=O)c2ccccc2C1=O (library stock concentration (final ~1000-fold dilution): 10 mM),NF-kB SEAP reporter activity,RAW-Dual [3]; agonist: LPS (TLR4) 0.1 ug/mL,0.216
same,NF-kB SEAP reporter activity,RAW-Dual [3]; [6],0.239
same,NF-kB SEAP reporter activity,RAW-Dual [3]; [7],1.77
same,NF-kB SEAP reporter activity,RAW-Dual [3]; [8],0.178
Cc1cn(-c2cc(NC(=O)c3ccc(C)c(Nc4nccc(-c5cccnc5)n4)c3)cc(C(F)(F)F)c2)cn1,NF-kB SEAP reporter activity,RAW-Dual [1]; [4],1.86
same,NF-kB SEAP reporter activity,RAW-Dual [1]; [5],1.27
Cc1cn(-c2cc(NC(=O)c3ccc(C)c(Nc4nccc(-c5cccnc5)n4)c3)cc(C(F)(F)F)c2)cn1 (library stock concentration (final ~1000-fold dilution): 10 mM),NF-kB SEAP reporter activity,RAW-Dual [2]; agonist: LPS (TLR4) 0.1 ug/mL,1.22
same,NF-kB SEAP reporter activity,RAW-Dual [2]; [6],1.95
same,NF-kB SEAP reporter activity,RAW-Dual [2]; [7],0.91
same,NF-kB SEAP reporter activity,RAW-Dual [2]; [8],0.881
CC(C)(C)c1ccc(S(=O)(=O)/C=C/C#N)cc1,NF-kB SEAP reporter activity,RAW-Dual [1]; [9],0.143 ± 0.006
same,NF-kB SEAP reporter activity,RAW-Dual [1]; [10],0.256 ± 0.023
same,NF-kB SEAP reporter activity,RAW-Dual [1]; [4],0.521
same,NF-kB SEAP reporter activity,RAW-Dual [1]; [5],0.288
CC(C)(C)c1ccc(S(=O)(=O)/C=C/C#N)cc1 (library stock concentration (final ~1000-fold dilution): 10 mM),NF-kB SEAP reporter activity,RAW-Dual [2]; agonist: LPS (TLR4) 0.1 ug/mL,0.328
same,NF-kB SEAP reporter activity,RAW-Dual [2]; [6],0.234
same,NF-kB SEAP reporter activity,RAW-Dual [2]; [7],0.112
same,NF-kB SEAP reporter activity,RAW-Dual [2]; [8],0.273
same,NF-kB SEAP reporter activity,RAW-Dual [3]; agonist: LPS (TLR4) 0.1 ug/mL,0.3 ± 0.13
same,NF-kB SEAP reporter activity,RAW-Dual [3]; [6],0.182 ± 0.0059
same,NF-kB SEAP reporter activity,RAW-Dual [3]; [7],0.0737 ± 0.012
same,NF-kB SEAP reporter activity,RAW-Dual [3]; [8],0.154 ± 0.007
CCNC(=O)C#Cc1ccc2c(c1)NC(=O)/C2=C(\Nc1ccc(CN(C)C)cc1)c1ccccc1,NF-kB SEAP reporter activity,RAW-Dual [1]; [9],0.134
same,NF-kB SEAP reporter activity,RAW-Dual [1]; [10],0.297
CCNC(=O)C#Cc1ccc2c(c1)NC(=O)/C2=C(\Nc1ccc(CN(C)C)cc1)c1ccccc1 (library stock concentration (final ~1000-fold dilution): 10 mM),NF-kB SEAP reporter activity,RAW-Dual [3]; agonist: LPS (TLR4) 0.1 ug/mL,0.241
same,NF-kB SEAP reporter activity,RAW-Dual [3]; [6],0.173
same,NF-kB SEAP reporter activity,RAW-Dual [3]; [7],0.074
same,NF-kB SEAP reporter activity,RAW-Dual [3]; [8],0.121
